Experimental data published in the CheMixHub viscosity set.
The source gives many values for each of these; only a part stands here.

Assay: xn = mol fraction of the nth substance listed

N#C[S-].[Na+] + O
viscosity [mPa·s], 101.3 kPa
Conditions	293.15 K	298.15 K	303.15 K	308.15 K	313.15 K	318.15 K	323.15 K
x1 = 0.1834	–	–	3.332	2.928	2.616	2.337	2.112
x1 = 0.2074	6.103	5.173	4.446	3.874	3.385	3.006	2.687
x1 = 0.2238	7.343	6.175	5.304	4.569	3.983	3.511	3.118
x1 = 0.2425	9.505	7.869	6.607	5.637	4.859	4.266	3.791
x1 = 0.2618	12.18	10.01	8.34	7.038	6.022	5.191	4.541

OCCNCCO + O
Conditions	viscosity [mPa·s]
298 K, 101.3 kPa, x1 = 0.00216	0.92
298 K, 101.3 kPa, x1 = 0.00361	0.93
298 K, 101.3 kPa, x1 = 0.00841	1.03
298 K, 101.3 kPa, x1 = 0.0131	1.12
298 K, 101.3 kPa, x1 = 0.03464	1.74
298 K, 101.3 kPa, x1 = 0.04057	2.17
298 K, 101.3 kPa, x1 = 0.04888	2.72
308.15 K, 101 kPa, x1 = 0.9012	223.4
313.15 K, 101 kPa, x1 = 0.0501	1.483
313.15 K, 101 kPa, x1 = 0.1004	2.997
313.15 K, 101 kPa, x1 = 0.1509	5.536
313.15 K, 101 kPa, x1 = 0.2006	9.37
313.15 K, 101 kPa, x1 = 0.3008	21.59
313.15 K, 101 kPa, x1 = 0.4014	40.28
313.15 K, 101 kPa, x1 = 0.5011	63.21
313.15 K, 101 kPa, x1 = 0.5957	86.84
313.15 K, 101 kPa, x1 = 0.6968	114.4
313.15 K, 101 kPa, x1 = 0.8034	141.3
313.15 K, 101 kPa, x1 = 0.9012	159.1
318.15 K, 101 kPa, x1 = 0.0501	1.322
318.15 K, 101 kPa, x1 = 0.1004	2.593
318.15 K, 101 kPa, x1 = 0.1509	4.667
318.15 K, 101 kPa, x1 = 0.2006	7.7
318.15 K, 101 kPa, x1 = 0.3008	17.07
318.15 K, 101 kPa, x1 = 0.4014	30.91
318.15 K, 101 kPa, x1 = 0.5011	47.47
318.15 K, 101 kPa, x1 = 0.5957	64.42
318.15 K, 101 kPa, x1 = 0.6968	84.07
318.15 K, 101 kPa, x1 = 0.8034	102.9
318.15 K, 101 kPa, x1 = 0.9012	116
323.15 K, 101 kPa, x1 = 0.0501	1.184
323.15 K, 101 kPa, x1 = 0.1004	2.258
323.15 K, 101 kPa, x1 = 0.1509	3.972
323.15 K, 101 kPa, x1 = 0.2006	6.41
323.15 K, 101 kPa, x1 = 0.3008	13.66
323.15 K, 101 kPa, x1 = 0.4014	24.12
323.15 K, 101 kPa, x1 = 0.5011	36.35
323.15 K, 101 kPa, x1 = 0.5957	49.57
323.15 K, 101 kPa, x1 = 0.6968	62.84
323.15 K, 101 kPa, x1 = 0.8034	76.61
323.15 K, 101 kPa, x1 = 0.9012	85.55
